Results on 67 compounds are retold here after the supplement of paper PMC12582362.

Where a name gives a salt, the structure may show the parent alone. About 30 (2%) of roughly 1,500 compounds showed activity.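 The calls were made as follows: active = robust z-score below -2; a few such results were not called.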 The list shows a part of the results.

The test system of the experiment is optoTopBP1 Flp-In 293 T-REx (HEK293) cells. Nature of the experiment: light-induced TopBP1 condensate (nuclear foci) count, plate-normalised robust z-score vs non-control wells; higher = more TopBP1 condensates (negative = condensation inhibitor), active = hit call of the paper. The following applies: 10 µM; incubation time 2 h.
As to `CC(NN)c1ccccc1` (configuration not stated) [Mebanazine], the “light-induced TopBP1 condensate (z-score)” value was inactive: 0.298.
With `CC(C(=O)O)c1ccc(N2Cc3ccccc3C2=O)cc1` (configuration not stated) [Indoprofen] the figure was inactive: 0.0765; with `CO[C@@]12[C@H](COC(N)=O)C3=C(C(=O)C(C)=C(N)C3=O)N1C[C@@H]1N[C@@H]12` [Mitomycin C], inactive: -0.867; with `CC1=Nc2ccc(Cl)cc2S(=O)(=O)N1` [Diazoxide], inactive: 0.359.
With `Cc1cc(/C=C/c2ccc3cc(N(C)C)ccc3[n+]2C)c(C)n1-c1ccccc1` [Pyrvinium pamoate] the figure was active: -4.74; with `COCCOC(=O)C1=C(C)NC(C)=C(C(=O)OC/C=C/c2ccccc2)C1c1cccc([N+](=O)[O-])c1` (configuration not stated) [Cilnidipine], inactive: 0.508; with `CCCCNc1ccc(C(=O)OCCOCCOCCOCCOCCOCCOCCOCCOCCOC)cc1` [Benzonatate], inactive: 0.771.
With `O=C(O)/C=C/c1ccc(Cn2ccnc2)cc1` [Ozagrel hydrochloride] the figure was inactive: 0.593; with `CCCc1nc(C)c2c(=O)nc(-c3cc(S(=O)(=O)N4CCN(CC)CC4)ccc3OCC)[nH]n12` [Vardenafil], inactive: 0.348; with `O=C(O)COC(=O)Cc1ccccc1Nc1c(Cl)cccc1Cl` [Aceclofenac], inactive: -0.0239.
Turning to `Cc1cnc(NC(=O)C2=C(O)c3ccccc3S(=O)(=O)N2C)s1` [Meloxicam], the “light-induced TopBP1 condensate (z-score)” value is inactive: 0.676.
For the compound `Cc1nnc(NS(=O)(=O)c2ccc(N)cc2)s1` [Sulfamethizole], the “light-induced TopBP1 condensate (z-score)” value is inactive: 0.339.
For `CCN1CCC[C@H]1CNC(=O)c1c(OC)ccc(Br)c1OC` [Remoxipride Hydrochloride] the value was inactive: 1.06.
With `CCN1CCN(c2cc3c(cc2F)c(=O)c(C(=O)O)cn3C2CC2)CC1` [Enrofloxacin] the figure was inactive: -0.838; with `Cc1c(C(=O)NN2CCCCC2)nn(-c2ccc(Cl)cc2Cl)c1-c1ccc(Cl)cc1` [Rimonabant], inactive: 0.84; with `COc1cc2c(cc1OC)CC(=O)N(CCCN(C)C[C@H]1Cc3cc(OC)c(OC)cc31)CC2` [Ivabradine hydrochloride], inactive: -0.402.
For `C[C@H]1c2cccc(O)c2C(=O)C2=C(O)[C@]3(O)C(=O)C(C(N)=O)=C(O)[C@@H](N(C)C)[C@@H]3[C@@H](O)[C@@H]21` [Doxycycline hydrochloride] the value was inactive: 0.0142; for `Clc1ccc(C(Cn2ccnc2)OCc2ccsc2Cl)c(Cl)c1` (configuration not stated) [Tioconazole], inactive: 0.517.
In the case of `CCCC1C(=O)N2C(N(C)C)=Nc3ccc(C)cc3N2C1=O` (configuration not stated) [Azapropazone], the “light-induced TopBP1 condensate (z-score)” value is inactive: 0.9.
With `C[C@](N)(Cc1ccc(O)c(O)c1)C(=O)O` [Methyldopa (L,-)] the figure was inactive: 1.67; with `c1cnc(N2CCN(Cc3ccc4c(c3)OCO4)CC2)nc1` [Piribedil hydrochloride], inactive: 0.421; with `CCOC(=O)O[C@]1(C(=O)OCCl)CC[C@H]2[C@@H]3CCC4=CC(=O)C=C[C@]4(C)[C@H]3[C@@H](O)C[C@@]21C` [Loteprednol etabonate], inactive: -0.488.
With `Cc1ccc(NC(=O)c2ccc(CN3CCN(C)CC3)cc2)cc1Nc1nccc(-c2cccnc2)n1` [Imatinib] the figure was inactive: -1.22; with `O=C(O)c1cn(C2CC2)c2cc(N3CCNCC3)c(F)cc2c1=O` [Ciprofloxacin hydrochloride monohydrate], inactive: 0.0624; with `CCOc1nc2cccc(C(=O)OCc3oc(=O)oc3C)c2n1Cc1ccc(-c2ccccc2-c2noc(=O)[nH]2)cc1` [Azilsartan kamedoxomil], inactive: 1.97.
As for `C#CCN[C@@H]1CCc2ccccc21` [Rasagiline], the “light-induced TopBP1 condensate (z-score)” value is inactive: -0.891.
Take `COc1ccc(-c2cc(=S)ss2)cc1` [Anethole-trithione]: the “light-induced TopBP1 condensate (z-score)” value is inactive: 0.0414.
For `COc1cc(C(=O)NCc2ccc(OCCN(C)C)cc2)cc(OC)c1OC` [Trimethobenzamide hydrochloride] the value was inactive: -0.218; for `CCCN1CCCC[C@H]1C(=O)Nc1c(C)cccc1C` [Ropivacaine hydrochloride], inactive: -0.165; for `C1CCC(C(CC2CCCCN2)C2CCCCC2)CC1` (configuration not stated) [Perhexiline maleate], inactive: -1.93.
As to `CC(C)NCC(O)COc1ccc(CCOCC2CC2)cc1` (configuration not stated) [Betaxolol hydrochloride], the “light-induced TopBP1 condensate (z-score)” value was inactive: 1.25.
With `CCc1nc(N)nc(N)c1-c1ccc(Cl)cc1` [Pyrimethamine] the figure was inactive: 1.18.
For `CC(=O)[C@@]1(O)CC[C@H]2[C@@H]3C[C@H](C)C4=CC(=O)C=C[C@]4(C)[C@@]3(F)[C@@H](O)C[C@@]21C` [Fluorometholone] the value was inactive: -0.232.
Turning to `CC(C)=C/C(C)=N/Nc1nncc2ccccc12` [Budralazine], the “light-induced TopBP1 condensate (z-score)” value is inactive: -0.574.
For `CCN(CC)CCNC(=O)c1cc(Cl)c(N)cc1OC` [Metoclopramide monohydrochloride], the “light-induced TopBP1 condensate (z-score)” value was inactive: -0.224.
For `CCOc1ccc2ccccc2c1C(=O)N[C@@H]1C(=O)N2[C@@H]1SC(C)(C)[C@@H]2C(=O)O` [Nafcillin sodium salt monohydrate] the value was inactive: 0.719; for `CC(C)(CO)C(O)C(=O)NCCCO` (configuration not stated) [Panthenol (D)], inactive: 0.585; for `CN(C)C/C=C(/c1ccc(Br)cc1)c1cccnc1` [Zimelidine dihydrochloride monohydrate], inactive: 0.813.
Regarding `Cn1cnc2c1c(=O)[nH]c(=O)n2C` [Theobromine], the “light-induced TopBP1 condensate (z-score)” value was inactive: -1.12.
For the compound `CC1=NN(c2ccccc2)C(=O)C1` [Edaravone], the “light-induced TopBP1 condensate (z-score)” value is inactive: -0.68.
With `CCC[C@@H]1C[C@@H](C(=O)N[C@@H]([C@H]2O[C@H](SC)[C@H](O)[C@@H](O)[C@H]2O)[C@H](C)Cl)N(C)C1` [Clindamycin hydrochloride] the figure was inactive: 0.556.
For `O=C(O)CCNC(=O)c1ccccc1` [Betamipron] the value was inactive: -0.17; for `O=C(N[C@H](CO)[C@H](O)c1ccc([N+](=O)[O-])cc1)C(Cl)Cl` [Chloramphenicol], inactive: 1.68; for `C=C1/C(=C\C=C2/CCC[C@]3(C)[C@@H]([C@H](C)CCCC(C)C)CC[C@@H]23)C[C@@H](O)C[C@@H]1O` [Alfacalcidol], inactive: -0.899.
For the compound `Cc1ccc2c(c1)c1c3n2CCNC3CCC1` (configuration not stated) [Pirlindole mesylate], the “light-induced TopBP1 condensate (z-score)” value is inactive: 0.854.
Regarding `CN(C)CCC=C1c2ccccc2COc2ccccc21` [Doxepin hydrochloride], the “light-induced TopBP1 condensate (z-score)” value is inactive: -1.36.
Consider `CN1CCC[C@@H]1Cc1c[nH]c2ccc(CCS(=O)(=O)c3ccccc3)cc12` [Eletriptan], for which the “light-induced TopBP1 condensate (z-score)” value was inactive: -0.0129.
For `CC(C)[N+](C)(CCOC(=O)C1c2ccccc2Oc2ccccc21)C(C)C` [Propantheline bromide], the “light-induced TopBP1 condensate (z-score)” value is inactive: -0.0433.
With `CC(C)Cc1ccc(CC(=O)O)cc1` [Ibufenac] the figure was inactive: -0.127; with `Nc1ccccc1S(N)(=O)=O` [2-Aminobenzenesulfonamide], inactive: -1.04; with `COc1ccccc1Oc1c(NS(=O)(=O)c2ccc(C(C)(C)C)cc2)nc(-c2ncccn2)nc1OCCO` [Bosentan], inactive: 0.343.
For `NS(=O)(=O)c1cc2c(cc1Cl)NC(C(Cl)Cl)NS2(=O)=O` (configuration not stated) [Trichlormethiazide] the value was inactive: 0.564; for `CN[C@@H]1[C@H](O)[C@H](NC)[C@H]2O[C@@]3(O)C(=O)C[C@@H](C)O[C@H]3O[C@@H]2[C@H]1O` [Spectinomycin dihydrochloride], inactive: 0.546; for `Cc1onc(-c2ccccc2Cl)c1C(=O)N[C@@H]1C(=O)N2[C@@H]1SC(C)(C)[C@@H]2C(=O)O` [Cloxacillin sodium salt], inactive: -0.159.
On to `N[C@@H](C(=O)N[C@@H]1C(=O)N2C(C(=O)O)=C(Cl)CC[C@H]12)c1ccccc1` [Loracarbef], for which the “light-induced TopBP1 condensate (z-score)” value was inactive: 0.325.
For `C#Cc1cccc(Nc2ncnc3cc(OCCOC)c(OCCOC)cc23)c1` [Erlotinib] the value was inactive: 1.27.
For `CC(C)Nc1cccnc1N1CCN(C(=O)c2cc3cc(NS(C)(=O)=O)ccc3[nH]2)CC1` [Delavirdine] the value was inactive: 0.915.
For `CN[C@@H]1[C@@H](O[C@H]2O[C@H](CO)[C@@H](N)[C@H](O)[C@H]2O)OC2C[C@@H](N)[C@@H](O[C@H]3[C@H](O)[C@@H](O)[C@H](N)C[C@@H]3N)OC2[C@@H]1O` (some centres not stated) [Apramycin], the “light-induced TopBP1 condensate (z-score)” value is inactive: 0.974.
Turning to `Cc1c(-c2ccccc2)oc2c(C(=O)OCCN3CCCCC3)cccc2c1=O` [Flavoxate hydrochloride], the “light-induced TopBP1 condensate (z-score)” value is inactive: -0.363.
With `CCOC(=O)C(C)(N)Cc1cc(I)c(Oc2cc(I)c(O)c(I)c2)c(I)c1` (configuration not stated) [Etiroxate hydrochloride] the figure was inactive: -0.327; with `CCCCc1cc2ccccc2c(OCCN(C)C)n1` [Dimethisoquin hydrochloride], inactive: -1.52.
In the case of `CC(C(=O)O)c1ccc2c(c1)[nH]c1ccc(Cl)cc12` (configuration not stated) [Carprofen], the “light-induced TopBP1 condensate (z-score)” value was inactive: -0.54.
On to `Cc1cccc(C)c1NC(=O)C(C)N` (configuration not stated) [Tocainide hydrochloride], for which the “light-induced TopBP1 condensate (z-score)” value was inactive: 1.66.
With `Cc1ccccc1C(=O)Nc1ccc(C(=O)N2CCCC(O)c3cc(Cl)ccc32)c(C)c1` (configuration not stated) [Tolvaptan], the “light-induced TopBP1 condensate (z-score)” value was inactive: -0.617.
For `Cc1cccc(C)c1NC(=O)CC12CCCN1CCC2` [Pilsicainide Hydrochloride] the value was inactive: -0.679.
For the compound `Nc1nc2[nH]cnc2c(=S)[nH]1` [Tioguanine], the “light-induced TopBP1 condensate (z-score)” value is inactive: 0.487.
Take `CC(C)c1cc2c(cc1S(=O)(=O)O)[C@@]1(C)CCC[C@@](C)(C(=O)O)[C@@H]1CC2` [Ecabet sodium]: the “light-induced TopBP1 condensate (z-score)” value is inactive: -0.0726.
